Reference: publication PMC12136788
This is one part of the list.

T1: UNK ZnF1-3 (human, UniProt Q9C0B0 31-174)
T1 sequence: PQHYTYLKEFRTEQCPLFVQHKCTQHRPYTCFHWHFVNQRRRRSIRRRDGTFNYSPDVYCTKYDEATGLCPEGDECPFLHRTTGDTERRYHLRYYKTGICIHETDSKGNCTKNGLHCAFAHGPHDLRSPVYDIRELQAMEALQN

B1: chr4:54876292:54876293:-_ENSG00000109220_ENST00000263921|perfect_dup|motif|central (ssRNA)
RNA: GGGAGUUCUACAGUCCGACGAUCCUAUAAAUAAAGCAAAUGCUAAUCUGGUCGAAAAAUCGGUGUCUUUGGUAAAAAUUCGGUGAGGAUGACAUAUUCCAUCAUGUUGUUCGUUUCACAUUUCCUUUUGCUCAGUCUCCAGUGCAACAGAGGAUUGAGCAUCA
B2: chr13:48835921:48835922:+_ENSG00000136156_ENST00000378565|hu_mus|FALSE|FALSE (ssRNA)
RNA: GGGAGUUCUACAGUCCGACGAUCAUAUGGGCUAUACAAAUUAGUAACAUGAGUUGCUUCUUAAAUUCCAAACAUUUGUCUAAAAUCUUAUUACAGCAGAGGCCUAGGAUAUUAAAACAUCAAGGCUGAAAUCCUCUAAAGUAGCAACAGAGGAUUGAGCAUCA
B3: chr1:127300101:127300102:-_ENSMUSG00000026341_ENSMUST00000027579|perfect_dup|motif|central (ssRNA)
RNA: GGGAGUUCUACAGUCCGACGAUCGGUGUACUGUUUGAUCCACUUUGACCCAUCGGUGUCAUACUUGUUAAACUCUUUUACGGAAUCUGGGCAGACAUAACUGUAGCGUUCCUUCACUGCUUUCGCAGUUUCCAAGGACUGCUCCAACAGAGGAUUGAGCAUCA
B4: chr8:117878989:117878990:-_ENSG00000164754_ENST00000297338|hu_hu|hu_hu_hu_mus_True|38_48 (ssRNA)
RNA: GGGAGUUCUACAGUCCGACGAUCCCAGAGGCCCUCGUUUACUGAGGACAAAAUGUGCGUAGAACAUUUUUCUUAUUUGCUAUGAAAACAGAAGAAAACCUUGCUCUGGCGGGGAGCCGGGAGGGGUGGGUGGCCCGGGGAGGGCAACAGAGGAUUGAGCAUCA
B5: chr11:87793471:87793472:-_ENSMUSG00000020483_ENSMUST00000020775|mus_hu|FALSE|FALSE (ssRNA)
RNA: GGGAGUUCUACAGUCCGACGAUCUGGACUUGAAAAUAAAAGAAUAAGCUGGAUCCCCCACCCCCCCACAUUGUCAACCCUACACGAGAGUUUUGAAGGCGACUCAUGAAAAUCAGCAGCUCAAACGGCAAUGACCACCCCACCCAACAGAGGAUUGAGCAUCA
B6: 15823076_15823196_455_5pUTR_ENSMUSG00000020601_ENSMUST00000020922|mouse|control|control (ssRNA)
RNA: GGGAGUUCUACAGUCCGACGAUCGAGUAGGGAGUGCGCGGAGUAGGGCAGGCACAGGUACCGCGACAAAGCCCAAGGCAGAGCCCGCGCGGUCAGCACUAGCUCUUGCUGUCGCUGCUCACGUCCCAGAUCCUCCUCCGAUGACAACAGAGGAUUGAGCAUCA
B7: chr1:29344795:29344796:+_ENSG00000159023_ENST00000356093|hu_hu|motif|central (ssRNA)
RNA: GGGAGUUCUACAGUCCGACGAUCGAGUUCUGGGUCGUAGUCUCCCAGUUCAGACUGGAUGGUGUAAGAACCUAAUAAUGCGGAGGUUGCAAAGGAACAGGGCAGACGUCCUGCAACUAUGUCCUGCCGAAGCUGAAGACAUAACAACAGAGGAUUGAGCAUCA
B8: chr5:128448638:128448639:+_ENSG00000066583_ENST00000173527|hu_mus|hu_hu_hu_mus_False|48_78 (ssRNA)
RNA: GGGAGUUCUACAGUCCGACGAUCGGCACUCGCCUUAAUUAGGUUCUGAAUUUCCUUGAAUUUUGGAUGGUCUUUGUCAGCCACCAGCUGAAGCAGAACAGCCUCACUAGUGGUCACGAUGAUCCCAGUGCGGGCAAGACGCUCCAACAGAGGAUUGAGCAUCA
B9: 30140768_30140888_1046_CDS_ENSMUSG00000075419_ENSMUST00000100219|mouse|control|control (ssRNA)
RNA: GGGAGUUCUACAGUCCGACGAUCCACACAGGUCAUGAGGUGGAAGAAGAUGGAAGAGGCCCAGGUGCCUGAAUCCAUGAAGACAAAGAGGGUGCUGAAAAAGACACCCAUGAGCACCAUCCCUACCACCACCACCAACAGGAACAACAGAGGAUUGAGCAUCA
B10: chr19:55172049:55172050:-_ENSMUSG00000024978_ENSMUST00000061856|mus_mus|FALSE|FALSE (ssRNA)
RNA: GGGAGUUCUACAGUCCGACGAUCGGUGUGUUUACAUCGGCCAAGGCUGUAUUCCGAUGAACUGGGCAGAUAAGAAACGUCUAUUGUGCCAACUGUCACUGAAGACUCCUCCAUGGCAGAACGUGCAAGUCCCAAACCAUGUGCCAACAGAGGAUUGAGCAUCA
B11: chr1:45868982:45868983:+_ENSMUSG00000025995_ENSMUST00000027139|mus_mus|FALSE|FALSE (ssRNA)
RNA: GGGAGUUCUACAGUCCGACGAUCAGAAGUACAGAACAAAUCUCCUGCAGGUGAGACAGAGAUGUGCUCAAUAGAAGAUCCUAAUCGAGGAAGAAACUCUUUGUUCUUCUCUGAUCCAUCUCGCCACUCCACAAGCACACACUCCAACAGAGGAUUGAGCAUCA
B12: chr1:127303955:127303956:-_ENSMUSG00000026341_ENSMUST00000027579|perfect_dup|motif|central (ssRNA)
RNA: GGGAGUUCUACAGUCCGACGAUCUAUUACCGUACCGGUCAACGUCCGUUCUCCUACUUGUCUUGAGGUCCAAGAUGCAGCGGAGGCAAGAACAGCCUGCACAGCAAUGUACAAGCCUGGAACAUUGAAGGACUCAAACAUUAUCAACAGAGGAUUGAGCAUCA
B13: 101936383_101936503_585_CDS_ENSG00000164924_ENST00000353245|human|control|control (ssRNA)
RNA: GGGAGUUCUACAGUCCGACGAUCUUUCUCUGGGGAGUUCAGAAUCUCAUAAUAGAACACAGAGAAGUUAAGGGCCAGACCCAGUCUGAUAGGAUGUGUUGGUUGCAUUUCCUUUUUGCUGAUUUCAAAAGCUUCUUGGUAUGCCAACAGAGGAUUGAGCAUCA
B14: chr10:41618152:41618153:+_ENSMUSG00000038332_ENSMUST00000041438|mus_hu|FALSE|FALSE (ssRNA)
RNA: GGGAGUUCUACAGUCCGACGAUCCGGCAUCUCAUCCACACUGUGAUUGCCAUUUGUAAUGUCACAGAUGCAGUAGUUGCUAACAGAAGGAGGUCUGAAUGUGUGGCCACCAUCACAAUGAAUUUCUGGACUGAUUCCACAGCCCAACAGAGGAUUGAGCAUCA
B15: chr3:121486967:121486968:-_ENSMUSG00000028127_ENSMUST00000029770|mus_mus|FALSE|FALSE (ssRNA)
RNA: GGGAGUUCUACAGUCCGACGAUCUCCAAUUGCACUUGUUAACUUGAAAAUAUAUAAAACUAUGUCUAAAAAUGGCUUACUAAGAUUUGAAUACAGAUCGACUACACUGUUACAAAAUUUUUCUACAUCCUGUGUAAGCAGCUGCAACAGAGGAUUGAGCAUCA
B16: chr4:56291666:56291667:+_ENSG00000134851_ENST00000381334|hu_mus|motif|central (ssRNA)
RNA: GGGAGUUCUACAGUCCGACGAUCAAAAUACAGUGUUUCCCAUUACUUUUAGUUGUAAUGUACACUAUGUACAGAAAAGAGUUGCCGGUCUUAAGCUGAAUACUGAAGAACAGCUUGUUAAAAACCAGACUCUGGACUUAUAAACAACAGAGGAUUGAGCAUCA
B17: 80654953_80657498_2791_CDS_ENSMUSG00000035051_ENSMUST00000038166|mouse|control|control (ssRNA)
RNA: GGGAGUUCUACAGUCCGACGAUCUUCUGCCAGCCCUGGUAAGAACACAAGGACAGCGCCUGGAGGGUAGGCGUGCUUGCCGUCUACAAUCCACUCUAACAAGGCCUCUAUUAGUUCAAGGUUGACCUUUUCAAAAUCCAUCACCAACAGAGGAUUGAGCAUCA
B18: chr2:216981417:216981418:+_ENSG00000079246_ENST00000392132|hu_hu|hu_hu_hu_mus_True|1_48 (ssRNA)
RNA: GGGAGUUCUACAGUCCGACGAUCCUGAUACUGGUCCUUGCCAGCAAGGGCAUUAUCAGUGCCAUCUGUGCCAUAGAGGACUAACGCAAUCUCAUCCUUGCUCUCCGAAAAUACCUGUCGUUGGACAAACAUAGUCAUCACCUUCAACAGAGGAUUGAGCAUCA
B19: chr2:37325018:37325019:+_ENSMUSG00000035437_ENSMUST00000112920|perfect_dup|motif|central (ssRNA)
RNA: GGGAGUUCUACAGUCCGACGAUCAUUAUUUGUAGAUGGUGUCUCAUCUCCUUGCCUGGAAACCAAGACAAAAUCUUCACGGUUAAGAGUAGACACUGAGUCUGAUGAGACACUGAUUUUUCCAACAGAGGCCUUGUCAUCCAUCAACAGAGGAUUGAGCAUCA
B20: chr2:17927185:17927186:-_ENSG00000163029_ENST00000351948|hu_hu|FALSE|FALSE (ssRNA)
RNA: GGGAGUUCUACAGUCCGACGAUCUUUAUCAAAAUCCUCCAAUUCUUCUUGUCUUGGCCUUUUGGCAUUUUUAGGAGAGGAAAAAUUUUCUUCCUUUCUUUUGGCCAUCAGGUCGCCAACAAGUCGAAGUCUCCCAAAGGAACCCAACAGAGGAUUGAGCAUCA
B21: chr7:36427155:36427156:-_ENSMUSG00000030417_ENSMUST00000118501|mus_hu|motif|central (ssRNA)
RNA: GGGAGUUCUACAGUCCGACGAUCACAAAGUAAAUAAUCAGAUCUUAACUUCUGUCCUAGACUUGUUCCGUUAAGUUCGGGUCUGUGAGCACUUGUAGUUCAAUAAUCGUCAUCUUCAUCAGAGUCCAUUACUUUUCUUCUGUUCAACAGAGGAUUGAGCAUCA
B22: chr17:79190952:79190953:-_ENSMUSG00000039414_ENSMUST00000097281|mus_hu|FALSE|FALSE (ssRNA)
RNA: GGGAGUUCUACAGUCCGACGAUCGCUAUGAUCAGUUGCAGCCAUGAAUGCCAUGCGAAUGAGGUCAGAGAGAUGAAGUACCAAGAGGUCAUUUGUAGGGUUUCGAAGUUUAGCAGAACGUGCCAAGGCAAGAUCAAAGUGAGCCAACAGAGGAUUGAGCAUCA

molecular target: T1, UNK ZnF1-3; experiment: nsRBNS (natural sequence RNA bind-n-seq); RBNS binding buffer (assumed for nsRBNS): 25 mM Tris pH 7.5, 150 mM KCl, 3 mM MgCl2, 0.01% Triton X-100, 500 ug/ml BSA, 20 U/ml SUPERase-In, 4 C; UNK is unkempt and MSI1 is Musashi-1; names of the RNAs are library labels; protein concentration not given here; high values mean tight binding

In order of falling binding signal:
1. B5  2.16 enrichment R
2. B9  1.87 enrichment R
3. B15  1.81 enrichment R
4. B1  1.46 enrichment R
5. B22  1.38 enrichment R
6. B4  1.37 enrichment R
7. B13  1.23 enrichment R
8. B14  1.1 enrichment R
9. B11  0.962 enrichment R
10. B12  0.898 enrichment R
11. B2  0.869 enrichment R
12. B17  0.829 enrichment R
13. B10  0.768 enrichment R
14. B21  0.749 enrichment R
15. B7  0.747 enrichment R
16. B18  0.735 enrichment R
17. B8  0.687 enrichment R
18. B16  0.563 enrichment R
19. B19  0.558 enrichment R
20. B3  0.435 enrichment R
21. B20  0.383 enrichment R
22. B6  0.308 enrichment R
